The campaign covered roughly 43,000 compounds. About 200 (0.47%) were called active. Roughly 12% stayed inconclusive and do not appear here. Calls come from the whole dose curve; as a rule, active = well fitted cell-killing curve with a large enough effect; inconclusive = small, poorly fitted or top-dose-only effect, or effect the other way; inactive = flat fitted curve, though single readings scatter. This is one part of the list.
Experiment: Cell viability qHTS assay in S16 Pmp22-F2sN cells; note: nearly all actives have a fitted effect of over 65% in size
Conditions: S16 Pmp22-F2sN Schwann cells viability, CellTiter-Glo, 24 h; series mostly up to 57.5 µM; activity change, negative = cytotoxicity: at the top concentration
Method in brief: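 S16 Pmp22-F2sN Schwann cells (500-1,000/well) in phenol-red-free DMEM with 10% FBS received 23 nL compound by pin tool for 24 h at 37 °C. Viability was then read as CellTiter-Glo luminescence after 15 min at room temperature.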
% is set by controls: 0 for no effect and ±100 for the full control effect.

Row | Structure (SMILES) | activity change, negative = cytotoxicity
1 | Cc1ccc(N2CC(NC(=O)CCc3ccccc3)CC2=O)cc1 (stereo unspecified) | inactive: 5.04%
2 | COc1ccccc1C(=O)NC(=O)Nc1ccc(-n2nc(C(F)(F)F)cc2C(F)(F)F)cc1 | inactive: 4.1%
3 | CC1=C(C(=O)NCc2ccc(Cl)cc2)C2(CCCCCC2)OC1=O | inactive: -12.6%
4 | COc1ccc(-c2ccc3c(N)c(C(=O)Nc4cccc(C)c4)sc3n2)cc1 | inactive: -1.52%
5 | COc1cccc(CSc2nc3n(n2)C(c2cccnc2)C(C(=O)Nc2ccccc2C)=C(C)N3)c1 (stereo unspecified) | inactive: 14.9%
6 | CCOC(=O)CCn1nc(C)c2c(C)n(-c3ccccc3)nc2c1=O | inactive: 1.71%
7 | Cc1cccc(N2CCN(C(=O)Cn3c(=O)c4cccn4c4ccc(F)cc43)CC2)c1C | inactive: 0.55%
8 | Cc1nc2cc(C(=O)O)ccc2n1-c1ccc(C(C)C)cc1 | inactive: -18.7%
9 | CCOC(=O)c1sc(NC(=O)c2cc3nc(-c4ccc(Br)cc4)cc(C(F)(F)F)n3n2)c(C(=O)OCC)c1C | inactive: -6.12%
10 | COc1ccc2[nH]cc(CCN=C(NC(=O)c3cccc(Cl)c3)Nc3nc(C)cc(C)n3)c2c1 | inactive: -4.72%
11 | CCOc1ccc(-c2nnc(SCC(=O)NCc3ccc(Cl)cc3)o2)cc1 | inactive: 6.95%
12 | O=C(CN1C(=O)C2(SCC(=O)N2c2ccccc2)c2ccccc21)Nc1ccccc1C(F)(F)F (stereo unspecified) | inactive: -3.01%
13 | CC(=O)c1nn(-c2ccc(OC(F)(F)F)cc2)nc1Nc1ccc(Cl)cc1 | inactive: 4.36%
14 | CCOc1ccc(NC(=O)Cn2cc(S(=O)(=O)c3ccc(C)cc3)c(=O)c3cc(F)ccc32)cc1 | inactive: 12.6%
15 | CCc1ccccc1NC(=O)CC(C)S(=O)(=O)c1ccc2c(c1)NC(=O)CO2 (stereo unspecified) | inactive: 13.4%
16 | CCc1ccc2occ(CC(=O)Nc3nnc(C)s3)c2c1 | inactive: 2.97%
17 | O=C(CSc1nc2c([nH]c3ccccc32)c(=O)n1-c1ccccc1)NCc1ccc(F)cc1 | inactive: 0.546%
18 | COc1ccc(S(=O)(=O)N2CCC(C(=O)NC(C)c3ccccc3)CC2)cc1 (stereo unspecified) | inactive: 4.98%
19 | Cc1nc(N2CCCC2)ncc1C(=O)NCc1ccc(Cl)cc1 | inactive: -11.9%
20 | CC1=C(c2ccc(F)cc2)S(=O)(=O)N=C1N1CCC(C(=O)NCCc2ccccc2)CC1 | inactive: 4.68%
21 | O=C(NCc1ccc(Cl)cc1)c1cc2ccc3cccnc3c2[nH]1 | inactive: 9.66%
22 | Cc1ccc(NC(=O)NCCOCCn2c(=O)oc3ccccc32)c(C)c1 | inactive: 3.46%
23 | COc1cccc(-n2c(SCC(=O)Nc3cccc(C)c3)nc3c([nH]c4ccccc43)c2=O)c1 | inactive: -6.26%
24 | O=C(CSc1ccccc1)N1CCc2c([nH]c3ccccc23)C1c1ccc(Cl)cc1 (stereo unspecified) | inactive: -23.1%
25 | Cc1cccc(S(=O)(=O)c2cn(C)c3cc(N4CCCCCC4)c(F)cc3c2=O)c1 | inactive: -0.891%
26 | Cc1cccc(NC(=O)c2cc(CN3CCOCC3)on2)c1C | inactive: 10.4%

Reference: PubChem BioAssay AID1508642 (National Center for Advancing Translational Sciences (NCATS), 2021)
